# Measured values published in the supplement of paper PMC8728848.
# Some of the results follow.
# B1: mLPHN-1 (Mus musculus), Q80TR1 (protein)
# chain: MARLAAALWSLCVTTVLVTSATQGLSRAGLPFGLMRRELACEGYPIELRCPGSDVIMVENANYGRTDDKICDADPFQMENVQCYLPDAFKIMSQRCNNRTQCVVVAGSDAFPDPCPGTYKYLEVQYDCVPYIFVCPGTLQKVLEPTSTHESEHQSGAWCKDPLQAGDRIYVMPWIPYRTDTLTEYASWEDYVAARHTTTYRLPNRVDGTGFVVYDGAVFYNKERTRNIVKYDLRTRIKSGETVINTANYHDTSPYRWGGKTDIDLAVDENGLWVIYATEGNNGRLVVSQLNPYTLRFEGTWETGYDKRSASNAFMVCGVLYVLRSVYVDDDSEAAGNRVDYAFNTNANREEPVSLAFPNPYQFVSSVDYNPRDNQLYVWNNYFVVRYSLEFGPPDPSAGPATSPPLSTTTTARPTPLTSTASPAATTPLRRAPLTTHPVGAINQLGPDLPPATAPAPSTRRPPAPNLHVSPELFCEPREVRRVQWPATQQGMLVERPCPKGTRGIASFQCLPALGLWNPRGPDLSNCTSPWVNQVAQKIKSGENAANIASELARHTRGSIYAGDVSSSVKLMEQLLDILDAQLQALRPIERESAGKNYNKMHKRERTCKDYIKAVVETVDNLLRPEALESWKDMNATEQVHTATMLLDVLEEGAFLLADNVREPARFLAAKQNVVLEVTVLNTEGQVQELVFPQEYPSENSIQLSANTIKQNSRNGVVKVVFILYNNLGLFLSTENATVKLAGEAGTGGPGGASLVVNSQVIAASINKESSRVFLMDPVIFTVAHLEAKNHFNANCSFWNYSERSMLGYWSTQGCRLVESNKTHTTCACSHLTNFAVLMAHREIYQGRINELLLSVITWVGIVISLVCLAICISTFCFLRGLQTDRNTIHKNLCINLFLAELLFLVGIDKTQYEVACPIFAGLLHYFFLAAFSWLCLEGVHLYLLLVEVFESEYSRTKYYYLGGYCFPALVVGIAAAIDYRSYGTEKACWLRVDNYFIWSFIGPVSFVIVVNLVFLMVTLHKMIRSSSVLKPDSSRLDNIKSWALGAIALLFLLGLTWAFGLLFINKESVVMAYLFTTFNAFQGVFIFVFHCALQKKVHKEYSKCLRHSYCCIRSPPGGTHGSLKTSAMRSNTRYYTGTQSRIRRMWNDTVRKQTESSFMAGDINSTPTLNRGTMGNHLLTNPVLQPRGGTSPYNTLIAESVGFNPSSPPVFNSPGSYREPKHPLGGREACGMDTLPLNGNFNNSYSLRSGDFPPGDGGPEPPRGRNLADAAAFEKMIISELVHNNLRGASGGAKGPPPEPPVPPVPGVSEDEAGGPGSADRAEIELLYKALEEPLLLPRAQSVLYQSDLDESESCTAEDGATSRPLSSPPGRDSLYASGANLRDSPSYPDSSPEGPNEALPPPPPAPPGPPEIYYTSRPPALVARNPLQGYYQVRRPSHEGYLAAPSLEGPGPDGDGQMQLVTSL
# Tests used:
# Assay in all cases: glycan array binding signal (z-score within array); higher = stronger binding
# Conditions in all cases: glycan notation: IUPAC condensed, linker removed
# [1] = molecular target: Fuc(a1-3)[GalNAc(b1-4)]GlcNAc
# How it was run: (§1)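 Glycan array data came from 3228 arrays in the Consortium for Functional Glycomics database, and only arrays with an available protein sequence were kept. Glycan names were put into IUPAC-condensed notation, and columns mapping to the same glycan were averaged. The binding signal is a within-array Z-score, averaged across arrays of one protein sequence run at different concentrations or buffers and across linkers. A negative Z-score can be read as non-binding.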
# Fuc(a1-4)GlcNAc = molecular target: Fuc(a1-4)GlcNAc
# How it was run: as §1
# Fuc(b1-3)GlcNAc = molecular target: Fuc(b1-3)GlcNAc
# How it was run: as §1
# Gal(a1-2)Gal = molecular target: Gal(a1-2)Gal
# How it was run: as §1
# Gal(a1-3)Gal = molecular target: Gal(a1-3)Gal
# How it was run: as §1
# Gal(a1-3)Gal(b1-3)GlcNAc = molecular target: Gal(a1-3)Gal(b1-3)GlcNAc
# How it was run: as §1
# Gal(a1-3)Gal(b1-4)Glc = molecular target: Gal(a1-3)Gal(b1-4)Glc
# How it was run: as §1
# Gal(a1-3)Gal(b1-4)GlcNAc = molecular target: Gal(a1-3)Gal(b1-4)GlcNAc
# How it was run: as §1
# [2] = molecular target: Gal(a1-3)Gal(b1-4)[Fuc(a1-3)]GlcNAc
# How it was run: as §1
# Gal(a1-3)GalNAc = molecular target: Gal(a1-3)GalNAc
# How it was run: as §1
# [3] = molecular target: Gal(a1-3)[Gal(a1-4)]Gal(b1-4)GlcNAc
# How it was run: as §1
# Gal(a1-4)Gal(b1-4)Glc = molecular target: Gal(a1-4)Gal(b1-4)Glc
# How it was run: as §1
# Gal(a1-4)Gal(b1-4)GlcNAc = molecular target: Gal(a1-4)Gal(b1-4)GlcNAc
# How it was run: as §1
# Gal(a1-4)GlcNAc = molecular target: Gal(a1-4)GlcNAc
# How it was run: as §1
# Gal(a1-6)Glc = molecular target: Gal(a1-6)Glc
# How it was run: as §1
# Gal(b1-2)Gal = molecular target: Gal(b1-2)Gal
# How it was run: as §1
# Gal(b1-3)Gal = molecular target: Gal(b1-3)Gal
# How it was run: as §1
# Gal(b1-3)Gal(b1-4)GlcNAc = molecular target: Gal(b1-3)Gal(b1-4)GlcNAc
# How it was run: as §1
# Gal(b1-3)GalNAc = molecular target: Gal(b1-3)GalNAc
# How it was run: as §1
# [4] = molecular target: Gal(b1-3)GalNAc(b1-3)Gal(a1-4)Gal(b1-4)Glc
# How it was run: as §1
# [5] = molecular target: Gal(b1-3)GalNAc(b1-4)Gal(b1-4)Glc
# How it was run: as §1
# [6] = molecular target: Gal(b1-3)GalNAc(b1-4)[Neu5Ac(a2-3)]Gal(b1-4)Glc
# How it was run: as §1
# Gal(b1-3)GlcNAc = molecular target: Gal(b1-3)GlcNAc
# How it was run: as §1
# [7] = molecular target: Gal(b1-3)GlcNAc(b1-2)Man(a1-3)[Gal(b1-3)GlcNAc(b1-2)Man(a1-6)]Man(b1-4)GlcNAc(b1-4)GlcNAc
# How it was run: as §1
# [8] = molecular target: Gal(b1-3)GlcNAc(b1-3)Gal(b1-3)GlcNAc
# How it was run: as §1
# [9] = molecular target: Gal(b1-3)GlcNAc(b1-3)Gal(b1-4)Glc
# How it was run: as §1
# [10] = molecular target: Gal(b1-3)GlcNAc(b1-3)Gal(b1-4)GlcNAc
# How it was run: as §1
# [11] = molecular target: Gal(b1-3)[Fuc(a1-4)]GlcNAc
# How it was run: as §1
# [12] = molecular target: Gal(b1-3)[Fuc(a1-4)]GlcNAc(b1-3)Gal(b1-3)[Fuc(a1-4)]GlcNAc
# How it was run: as §1
# [13] = molecular target: Gal(b1-3)[Fuc(a1-4)]GlcNAc(b1-3)Gal(b1-4)GlcNAc
# How it was run: as §1
# [14] = molecular target: Gal(b1-3)[Fuc(a1-4)]GlcNAc(b1-3)Gal(b1-4)[Fuc(a1-3)]GlcNAc
# How it was run: as §1
# [15] = molecular target: Gal(b1-3)[GlcNAc(b1-6)]GalNAc
# How it was run: as §1
# [16] = molecular target: Gal(b1-3)[Neu5Ac(a2-6)]GalNAc
# How it was run: as §1
# [17] = molecular target: Gal(b1-3)[Neu5Ac(a2-6)]GlcNAc(b1-6)Gal(b1-4)Glc
# How it was run: as §1
# [18] = molecular target: Gal(b1-3)[Neu5Ac(b2-6)]GalNAc
# How it was run: as §1
# [19] = molecular target: Gal(b1-4)GalNAc(a1-3)[Fuc(a1-2)]Gal(b1-4)GlcNAc
# How it was run: as §1
# [20] = molecular target: Gal(b1-4)GalNAc(b1-3)[Fuc(a1-2)]Gal(b1-4)GlcNAc
# How it was run: as §1
# Gal(b1-4)Glc = molecular target: Gal(b1-4)Glc
# How it was run: as §1
# Gal(b1-4)Glc6S = molecular target: Gal(b1-4)Glc6S
# How it was run: as §1
# Gal(b1-4)GlcNAc = molecular target: Gal(b1-4)GlcNAc
# How it was run: as §1
# [21] = molecular target: Gal(b1-4)GlcNAc(a1-6)Gal(b1-4)GlcNAc
# How it was run: as §1
# [22] = molecular target: Gal(b1-4)GlcNAc(b1-2)Man(a1-3)[Gal(b1-4)GlcNAc(b1-2)Man(a1-6)]Man(b1-4)GlcNAc(b1-4)GlcNAc
# How it was run: as §1
# [23] = molecular target: Gal(b1-4)GlcNAc(b1-3)Gal(b1-3)GlcNAc
# How it was run: as §1
# [24] = molecular target: Gal(b1-4)GlcNAc(b1-3)Gal(b1-4)Glc
# How it was run: as §1
# [25] = molecular target: Gal(b1-4)GlcNAc(b1-3)Gal(b1-4)GlcNAc
# How it was run: as §1
binder,measurement,setting,value
B1,glycan array binding signal (z-score),[1],0.557
same,glycan array binding signal (z-score),Fuc(a1-4)GlcNAc,-0.33
same,glycan array binding signal (z-score),Fuc(b1-3)GlcNAc,-0.048
same,glycan array binding signal (z-score),Gal(a1-2)Gal,-0.272
same,glycan array binding signal (z-score),Gal(a1-3)Gal,0.155
same,glycan array binding signal (z-score),Gal(a1-3)Gal(b1-3)GlcNAc,-0.505
same,glycan array binding signal (z-score),Gal(a1-3)Gal(b1-4)Glc,-0.08
same,glycan array binding signal (z-score),Gal(a1-3)Gal(b1-4)GlcNAc,-0.113
same,glycan array binding signal (z-score),[2],0.451
same,glycan array binding signal (z-score),Gal(a1-3)GalNAc,-0.05
same,glycan array binding signal (z-score),[3],-0.374
same,glycan array binding signal (z-score),Gal(a1-4)Gal(b1-4)Glc,-0.17
same,glycan array binding signal (z-score),Gal(a1-4)Gal(b1-4)GlcNAc,-0.187
same,glycan array binding signal (z-score),Gal(a1-4)GlcNAc,-0.181
same,glycan array binding signal (z-score),Gal(a1-6)Glc,-0.443
same,glycan array binding signal (z-score),Gal(b1-2)Gal,-0.052
same,glycan array binding signal (z-score),Gal(b1-3)Gal,-0.128
same,glycan array binding signal (z-score),Gal(b1-3)Gal(b1-4)GlcNAc,0.16
same,glycan array binding signal (z-score),Gal(b1-3)GalNAc,0.025
same,glycan array binding signal (z-score),[4],-0.1
same,glycan array binding signal (z-score),[5],-0.183
same,glycan array binding signal (z-score),[6],-0.12
same,glycan array binding signal (z-score),Gal(b1-3)GlcNAc,-0.325
same,glycan array binding signal (z-score),[7],0.025
same,glycan array binding signal (z-score),[8],-0.333
same,glycan array binding signal (z-score),[9],0.789
same,glycan array binding signal (z-score),[10],-0.33
same,glycan array binding signal (z-score),[11],-0.197
same,glycan array binding signal (z-score),[12],-0.521
same,glycan array binding signal (z-score),[13],-0.369
same,glycan array binding signal (z-score),[14],-0.14
same,glycan array binding signal (z-score),[15],-0.336
same,glycan array binding signal (z-score),[16],-0.398
same,glycan array binding signal (z-score),[17],-0.14
same,glycan array binding signal (z-score),[18],0.071
same,glycan array binding signal (z-score),[19],0.331
same,glycan array binding signal (z-score),[20],1.66
same,glycan array binding signal (z-score),Gal(b1-4)Glc,-0.186
same,glycan array binding signal (z-score),Gal(b1-4)Glc6S,0.054
same,glycan array binding signal (z-score),Gal(b1-4)GlcNAc,-0.404
same,glycan array binding signal (z-score),[21],0.718
same,glycan array binding signal (z-score),[22],0.535
same,glycan array binding signal (z-score),[23],0.183
same,glycan array binding signal (z-score),[24],-0.322
same,glycan array binding signal (z-score),[25],-0.105
